SMILES strings stand for the structures. Hit rate of the full screen: of about 310,000 compounds, about 2,200 (0.71%) showed an effect of 50% or more. Effects have a minus sign here. This is one part of the list.

This assay deals with human ether-à-go-go-related gene (hERG) potassium channel (human, UniProt Q12809). As to the kind of experiment: primary screen, population patch clamp on CHO cells stably expressing hERG.
Sequence of human ether-à-go-go-related gene (hERG) potassium channel (Q12809 whole entry, looked up): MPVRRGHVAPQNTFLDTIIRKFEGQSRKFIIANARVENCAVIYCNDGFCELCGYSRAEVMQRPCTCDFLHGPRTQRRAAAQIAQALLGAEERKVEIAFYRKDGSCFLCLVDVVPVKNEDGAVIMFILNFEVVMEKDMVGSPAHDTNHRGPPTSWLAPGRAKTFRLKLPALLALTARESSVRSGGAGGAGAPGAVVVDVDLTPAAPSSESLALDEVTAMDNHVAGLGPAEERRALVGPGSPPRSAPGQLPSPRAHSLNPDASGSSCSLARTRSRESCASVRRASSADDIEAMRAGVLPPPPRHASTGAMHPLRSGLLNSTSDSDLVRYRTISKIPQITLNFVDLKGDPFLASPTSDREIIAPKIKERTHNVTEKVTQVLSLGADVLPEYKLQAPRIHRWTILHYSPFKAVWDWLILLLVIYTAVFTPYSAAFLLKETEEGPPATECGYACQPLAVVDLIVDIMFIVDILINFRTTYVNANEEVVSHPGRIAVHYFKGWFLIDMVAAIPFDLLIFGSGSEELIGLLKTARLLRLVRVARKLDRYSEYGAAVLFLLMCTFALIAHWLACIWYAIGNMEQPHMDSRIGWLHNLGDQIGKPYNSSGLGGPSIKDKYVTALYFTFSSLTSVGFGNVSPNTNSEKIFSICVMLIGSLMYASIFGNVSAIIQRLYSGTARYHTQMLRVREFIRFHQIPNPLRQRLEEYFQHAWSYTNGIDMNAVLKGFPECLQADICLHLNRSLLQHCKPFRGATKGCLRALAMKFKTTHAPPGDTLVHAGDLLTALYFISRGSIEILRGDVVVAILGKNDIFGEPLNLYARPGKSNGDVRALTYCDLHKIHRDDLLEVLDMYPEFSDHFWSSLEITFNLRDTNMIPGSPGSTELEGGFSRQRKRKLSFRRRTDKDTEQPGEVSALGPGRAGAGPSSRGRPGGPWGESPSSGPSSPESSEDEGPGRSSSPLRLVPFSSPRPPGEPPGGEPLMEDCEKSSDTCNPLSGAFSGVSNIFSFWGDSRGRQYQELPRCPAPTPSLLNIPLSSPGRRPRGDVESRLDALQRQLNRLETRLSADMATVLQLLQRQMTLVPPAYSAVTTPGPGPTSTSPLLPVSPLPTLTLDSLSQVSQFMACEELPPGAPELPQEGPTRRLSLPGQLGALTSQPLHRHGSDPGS
Take `Cc1ccc2nc(-c3ccc(NC(=O)COC(=O)c4ccc(=O)[nH]c4)cc3)sc2c1`: the “hERG current change (%, negative = inhibition) at 1uM” value was -0.499%. With `CCOP(=O)(OCC)C(NC(=O)C(Cl)Cl)C(Cl)(Cl)Cl` (centres unmarked), the “hERG current change (%, negative = inhibition) at 1uM” value came to 14.7%.

`COc1ccc(NC(=O)COC(=O)c2ccc(F)cc2F)cc1`: the “hERG current change (%, negative = inhibition) at 1uM” value amounted to 9.87%. Under `O=C(CSc1nnnn1-c1ccccc1)NCc1ccco1` stands 5.98%.

As for `CCCN1C(=O)/C(=C/C=C2\N(CC)c3ccccc3C2(C)C)SC1=S`, the “hERG current change (%, negative = inhibition) at 1uM” value was determined as 5.72%. Take `CC(C)[C@H](NC(=O)c1ccccc1)C(=O)OCC(=O)N1CC(=O)Nc2ccccc21`: the “hERG current change (%, negative = inhibition) at 1uM” value worked out at 10.2%. Under `N=c1c2c(ncn1CCCO)Oc1cc(O)ccc1C2c1ccccc1` (centres unmarked) stands 0.259%; under `CC(C)OC(=O)CSc1nnc2n1C(C)(C)Cc1ccccc1-2`, 13.2%.

`C[C@H](NC(=O)OC(C)(C)C)C(=O)NCC1CCC(C(=O)O)CC1` (some centres unmarked): the “hERG current change (%, negative = inhibition) at 1uM” value is 6.25%. As to `Cc1c(Br)cc(C(=O)N2CCCCCC2)c(C)c1C`, the “hERG current change (%, negative = inhibition) at 1uM” value is on record as -8.1%.

For `CCCCCCCN=CC1=C(O)CC(c2ccccc2)CC1=O` (centres unmarked), the “hERG current change (%, negative = inhibition) at 1uM” value was 3.33%.

With `NC(=O)c1cc([N+](=O)[O-])c(Cl)cc1NCc1cccnc1`, the “hERG current change (%, negative = inhibition) at 1uM” value turned out to be 12.9%.

`CCOC(=O)N1CCN(CC(=O)Nc2ccc(F)cc2F)CC1`: the “hERG current change (%, negative = inhibition) at 1uM” value was -1.13%. With `COc1ccc(NC(=O)CS(=O)c2cccc(C(F)(F)F)c2)cc1` (centres unmarked), the “hERG current change (%, negative = inhibition) at 1uM” value is recorded as 18.6%. Under `COc1ccc(CC(=O)Oc2ccc(C(C)C)cc2)cc1S(=O)(=O)N1CCOCC1` stands 19.2%; under `Cc1cc(C(=O)NCC(=O)OCC(=O)N(C2CCCCC2)C2CCCCC2)ccc1[N+](=O)[O-]`, 6.44%; under `Cc1ccc2nc(N3CCN(C=O)CC3)nc(-c3ccccc3)c2c1`, -5.2%. For the molecule `O=C(Nc1ccccc1F)c1ccccc1-c1ccccc1`, the “hERG current change (%, negative = inhibition) at 1uM” value worked out at 9.74%. With `Cc1ccc(-c2noc(-c3ccccc3C(=O)N3CCOCC3)n2)cc1`, the “hERG current change (%, negative = inhibition) at 1uM” value is given as 0.968%. Turning to `N#CCNC(=O)c1cccn1-c1ncc(C(F)(F)F)cc1Cl`, the “hERG current change (%, negative = inhibition) at 1uM” value is -11.6%. As for `CC(Sc1nncs1)C(=O)Nc1ccc2c(c1)OCO2` (centres unmarked), the “hERG current change (%, negative = inhibition) at 1uM” value worked out at 21.4%. Next, `O=C1C(Cc2ccc(O)cc2)NC(=S)N1Cc1ccccc1` (centres unmarked): 8.51%; `COc1cc(/C=N/NC(=O)c2cc3c(ccc4ccccc43)o2)cc(OC)c1O`: 11.2%; `O=C(CC1CCS(=O)(=O)C1)Nc1ccc[nH]c1=O` (centres unmarked): 5.43%. Consider `COc1cc(NC(=O)CSc2nc3ccccc3n2-c2ccccc2)c(C)cc1[N+](=O)[O-]`, for which the “hERG current change (%, negative = inhibition) at 1uM” value was 8.38%.

`O=C(/C=C/c1ccccc1)Nc1nnc(SCC(=O)c2ccc3ccccc3c2)s1`: the “hERG current change (%, negative = inhibition) at 1uM” value is recorded as 12.5%.

Turning to `Cc1ccc(C2CC2c2n[nH]c(=S)n2-c2ccc(Cl)cc2)cc1` (centres unmarked), the “hERG current change (%, negative = inhibition) at 1uM” value is 12.8%. For `Cc1nc2sc3c(c2c(=O)n1/N=C/c1ccco1)CCCC3`, the “hERG current change (%, negative = inhibition) at 1uM” value turned out to be 13.2%.

For `Cc1cc(S(=O)(=O)N(Cc2ccc(C(C)C)cc2)CC2CCCO2)ccc1-n1cnnn1` (centres unmarked), the “hERG current change (%, negative = inhibition) at 1uM” value is -13%. Next, `Cc1ccc(S(=O)(=O)C(C#N)c2nc3ccccc3nc2N2CCN(C)CC2)cc1C` (centres unmarked): 13.2%; `Cc1cc(C)n2ncc(C(=O)NCc3ccc(Cl)cc3)c2n1`: 4.94%; `CC(C(=O)NCc1cccs1)N1C(=O)c2ccccc2C1=O` (centres unmarked): 6.24%. Under `CCCn1cnc2c1c(=O)n(CCCCC(C)=O)c(=O)n2C` stands 4.24%; under `COc1ccccc1C1C(C(C)=O)=C(C)N=c2s/c(=C\c3cc(OC)c(OC)c(OC)c3)c(=O)n21` (centres unmarked), 8.57%; under `CCOc1cc2[nH]c(=S)n(CCCC(=O)N3CCC4(CC3)OCCO4)c(=O)c2cc1OCC`, 11.1%.

On to `C=CCOCCN(C)C1=NS(=O)(=O)c2ccccc21.Cl`, for which the “hERG current change (%, negative = inhibition) at 1uM” value is listed as 2.56%.

On to `Cc1cc(=O)[nH]c2ccc(S(=O)(=O)N3CCOCC3)cc12`, for which the “hERG current change (%, negative = inhibition) at 1uM” value stood at 19.9%. Consider `COc1ccc(C(=O)N/N=C/c2ccc(OC)c(COc3c(F)c(F)cc(F)c3F)c2)cc1`, for which the “hERG current change (%, negative = inhibition) at 1uM” value came to 15.9%.

Take `COc1cc(NC(=O)c2cccc([N+](=O)[O-])c2)ccc1NC(=O)c1cc2ccccc2o1`: the “hERG current change (%, negative = inhibition) at 1uM” value stood at 11%.

As to `O=C(CSc1nnc(SCC(=O)c2ccco2)s1)c1ccco1`, the “hERG current change (%, negative = inhibition) at 1uM” value was determined as 6.14%. Under `O=C1CN(c2nc3ccccc3n3cnnc23)CC(=O)N1CCc1ccccc1` stands 12.1%; under `C=CCN(C(=O)Nc1ccc2c(c1)nc(C)n2C)c1ccccc1`, 6.88%.

Regarding `Cc1cc(NCc2ccco2)nc(N2CCC(C(=O)NC3CCCCC3)CC2)n1`, the “hERG current change (%, negative = inhibition) at 1uM” value was -63.6%. For the molecule `COc1ccc(N(CC(=O)Nc2ccccc2F)S(=O)(=O)c2ccc(OC)c(OC)c2)cc1`, the “hERG current change (%, negative = inhibition) at 1uM” value was 10.5%.

The values are drawn from paper PMC4336329 (PLoS ONE, 2015).
